This note sets out measurements from the antibiotic and cytotoxicity screens of Wong et al. (2023).

The test system of one test is HSkMC. The test is described as follows: cytotoxicity call (relative viability < 0.9). As to conditions: 10 µM.
A further test deals with HepG2. Briefly: cytotoxicity call (relative viability < 0.9). As to conditions: 10 µM.
The test system of another test is S. aureus RN4220. The test is described as follows: growth inhibition call (relative growth <= 0.2). The note with it: 50 µM.

This is one part of the list.

On to `NC[C@@H](O)c1ccccc1`, for which the cytotoxicity call in the test with HSkMC and in the test on HepG2 was “inactive” in each case. Further, the growth inhibition call in the test on S. aureus RN4220 was “inactive”.

On to `O=C(c1ccccc1)C12CN3CN(CN(C3)C1)C2`, for which the cytotoxicity call with HSkMC and with HepG2 was “inactive” throughout. In the test with S. aureus RN4220, the growth inhibition call is “inactive”.

Consider `Nc1nc(Cl)ncc1[N+](=O)[O-]`, for which the cytotoxicity call in the test on HSkMC and in the test with HepG2 was “inactive” each time. In the test with S. aureus RN4220, the growth inhibition call is “inactive”.

As for `O=c1[nH]c2ccccc2n1C1CCN(CCCC(c2ccc(F)cc2)c2ccc(F)cc2)CC1`, the cytotoxicity call in the test on HSkMC and in the test on HepG2 was “active” each time. In addition, the growth inhibition call in the test with S. aureus RN4220 is “inactive”.

With `O=[N+]([O-])c1ccc(O)c([N+](=O)[O-])c1`, the cytotoxicity call with HSkMC and with HepG2 was “inactive” in each case. Moreover, the growth inhibition call in the test on S. aureus RN4220 is “active”.

Turning to `Cc1ncc(CNC(=O)N(CCCl)N=O)c(N)n1.Cl`, the cytotoxicity call in the test with HSkMC and in the test on HepG2 was “inactive” throughout. Further, the growth inhibition call with S. aureus RN4220 was “inactive”.

On to `C[C@H](CO)N1C[C@H](C)[C@H](CN(C)C(=O)Oc2cccc3ccccc23)OCc2cn(nn2)CCCC1=O`, for which the cytotoxicity call with HSkMC and with HepG2 was “inactive” in each case. Besides, the growth inhibition call in the test on S. aureus RN4220 is “inactive”.

Consider `Cc1ccc(OC(=O)N(C)C[C@@H]2OCc3ccccc3-c3c(n(C)c4ccccc34)C(=O)N([C@H](C)CO)C[C@@H]2C)cc1`, for which the cytotoxicity call in the test with HSkMC and in the test on HepG2 was “inactive” each time. Also, the growth inhibition call in the test with S. aureus RN4220 was “inactive”.

In the case of `C[C@H]1O[C@H](O[C@H]2[C@H](O)[C@@H](O)[C@@H](O)[C@H](O)[C@@H]2O)[C@@H](N)C[C@@H]1NC(=N)C(=O)O`, the cytotoxicity call in the test on HSkMC and in the test on HepG2 was “inactive” in each case. Moreover, the growth inhibition call in the test on S. aureus RN4220 is “inactive”.

For the compound `Nc1ccc(-c2ccccc2)cc1`, the cytotoxicity call in the test with HSkMC and in the test on HepG2 was “inactive” throughout. The growth inhibition call in the test on S. aureus RN4220 is “inactive”.

With `NCCc1cccc2ccccc12`, the cytotoxicity call in the test on HSkMC (human skeletal muscle cells) and in the test with HepG2 was “inactive” throughout. Further, the growth inhibition call in the test on S. aureus RN4220 is “inactive”.

Regarding `CN1CCCCC1c1ccc(-c2cccnc2)nc1.Cl` (configuration not stated), the cytotoxicity call in the test with HSkMC and with HepG2 was “inactive” in each case. For the same compound, the growth inhibition call in the test with S. aureus RN4220 is “inactive”.

Regarding `COC(=O)C[C@H]1CC[C@H]2NC[C@H](O)COC[C@@H]2O1`, the cytotoxicity call in the test with HSkMC and in the test on HepG2 was “inactive” each time. Further, the growth inhibition call in the test on S. aureus RN4220 was “inactive”.

As to `CC(C)(O)/C=C/C(=O)[C@](C)(O)[C@H]1[C@H](O)C[C@@]2(C)[C@H]3CC=C4[C@@H](CC(=O)C(=O)C4(C)C)[C@]3(C)C(=O)C[C@]12C`, the cytotoxicity call with HSkMC and with HepG2 was “active” throughout. In addition, the growth inhibition call in the test on S. aureus RN4220 was “inactive”.
